Here are results for nine substances from PMC12578348.

Sequences of proteins named here, by UniProt entry; tags and fusion partners are left off. Residues count along the entry.
UniProt P11142: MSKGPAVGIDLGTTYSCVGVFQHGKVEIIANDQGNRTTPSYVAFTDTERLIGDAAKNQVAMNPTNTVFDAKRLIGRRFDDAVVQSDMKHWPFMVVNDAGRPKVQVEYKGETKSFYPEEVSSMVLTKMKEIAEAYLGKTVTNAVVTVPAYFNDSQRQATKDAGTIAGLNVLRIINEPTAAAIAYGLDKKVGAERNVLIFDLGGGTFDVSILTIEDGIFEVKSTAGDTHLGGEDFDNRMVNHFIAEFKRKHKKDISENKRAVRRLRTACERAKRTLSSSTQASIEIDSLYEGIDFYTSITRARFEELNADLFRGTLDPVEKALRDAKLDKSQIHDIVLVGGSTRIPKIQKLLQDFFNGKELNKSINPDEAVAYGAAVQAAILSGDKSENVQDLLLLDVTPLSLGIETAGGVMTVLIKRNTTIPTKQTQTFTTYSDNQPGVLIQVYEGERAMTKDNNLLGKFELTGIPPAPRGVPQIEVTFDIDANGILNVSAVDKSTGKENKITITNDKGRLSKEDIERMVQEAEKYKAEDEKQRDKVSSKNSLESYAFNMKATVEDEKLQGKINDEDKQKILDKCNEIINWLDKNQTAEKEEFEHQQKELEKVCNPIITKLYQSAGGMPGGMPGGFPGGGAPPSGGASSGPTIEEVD
UniProt P13473, residues 29-410: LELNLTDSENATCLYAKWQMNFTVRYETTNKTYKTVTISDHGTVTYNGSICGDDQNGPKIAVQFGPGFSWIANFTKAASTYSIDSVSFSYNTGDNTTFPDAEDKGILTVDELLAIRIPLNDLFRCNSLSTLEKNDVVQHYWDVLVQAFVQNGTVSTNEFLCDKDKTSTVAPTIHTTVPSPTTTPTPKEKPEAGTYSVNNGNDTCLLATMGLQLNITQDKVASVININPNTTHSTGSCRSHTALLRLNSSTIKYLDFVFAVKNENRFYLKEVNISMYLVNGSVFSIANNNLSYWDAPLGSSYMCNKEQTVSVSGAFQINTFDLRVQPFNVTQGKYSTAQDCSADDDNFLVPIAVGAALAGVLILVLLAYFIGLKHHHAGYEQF
UniProt P03427: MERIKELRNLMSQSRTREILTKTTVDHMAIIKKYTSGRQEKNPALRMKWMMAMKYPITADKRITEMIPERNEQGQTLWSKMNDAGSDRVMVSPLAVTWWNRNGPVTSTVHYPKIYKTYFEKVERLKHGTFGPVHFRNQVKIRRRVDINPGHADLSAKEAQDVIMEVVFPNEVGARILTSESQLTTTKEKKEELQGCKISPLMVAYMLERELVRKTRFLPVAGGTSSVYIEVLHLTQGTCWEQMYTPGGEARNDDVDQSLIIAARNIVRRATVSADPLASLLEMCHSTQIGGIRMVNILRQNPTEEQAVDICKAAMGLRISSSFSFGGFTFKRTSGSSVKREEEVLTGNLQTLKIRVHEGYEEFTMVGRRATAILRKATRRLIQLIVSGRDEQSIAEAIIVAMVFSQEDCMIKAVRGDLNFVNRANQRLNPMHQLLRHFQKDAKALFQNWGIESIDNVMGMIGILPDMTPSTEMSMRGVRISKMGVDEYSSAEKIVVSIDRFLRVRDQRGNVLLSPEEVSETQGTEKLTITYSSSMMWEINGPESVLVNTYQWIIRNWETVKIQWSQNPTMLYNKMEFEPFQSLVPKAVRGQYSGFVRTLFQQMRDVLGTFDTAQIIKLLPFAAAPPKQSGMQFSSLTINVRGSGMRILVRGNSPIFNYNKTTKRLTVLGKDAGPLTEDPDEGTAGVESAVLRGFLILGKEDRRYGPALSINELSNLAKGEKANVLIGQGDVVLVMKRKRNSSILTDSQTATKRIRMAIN
UniProt P03430: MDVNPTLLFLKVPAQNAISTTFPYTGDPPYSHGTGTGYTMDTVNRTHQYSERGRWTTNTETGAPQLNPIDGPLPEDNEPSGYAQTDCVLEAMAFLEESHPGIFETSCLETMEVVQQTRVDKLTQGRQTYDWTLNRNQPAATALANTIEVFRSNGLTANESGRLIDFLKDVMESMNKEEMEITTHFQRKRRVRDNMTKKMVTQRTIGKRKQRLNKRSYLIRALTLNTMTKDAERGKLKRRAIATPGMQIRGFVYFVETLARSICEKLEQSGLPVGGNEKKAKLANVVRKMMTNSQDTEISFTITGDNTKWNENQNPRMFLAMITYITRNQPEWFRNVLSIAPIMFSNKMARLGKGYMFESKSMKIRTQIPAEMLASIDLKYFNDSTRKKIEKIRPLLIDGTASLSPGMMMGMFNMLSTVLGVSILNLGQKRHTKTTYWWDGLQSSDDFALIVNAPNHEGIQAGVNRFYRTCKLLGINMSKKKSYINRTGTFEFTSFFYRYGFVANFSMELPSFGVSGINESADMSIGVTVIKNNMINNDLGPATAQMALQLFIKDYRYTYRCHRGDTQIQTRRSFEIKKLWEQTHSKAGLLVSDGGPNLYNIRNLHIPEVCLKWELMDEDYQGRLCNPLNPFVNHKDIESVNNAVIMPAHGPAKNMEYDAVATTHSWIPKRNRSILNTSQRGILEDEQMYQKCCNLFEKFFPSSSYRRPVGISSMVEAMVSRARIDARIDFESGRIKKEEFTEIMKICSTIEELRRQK
UniProt P05777: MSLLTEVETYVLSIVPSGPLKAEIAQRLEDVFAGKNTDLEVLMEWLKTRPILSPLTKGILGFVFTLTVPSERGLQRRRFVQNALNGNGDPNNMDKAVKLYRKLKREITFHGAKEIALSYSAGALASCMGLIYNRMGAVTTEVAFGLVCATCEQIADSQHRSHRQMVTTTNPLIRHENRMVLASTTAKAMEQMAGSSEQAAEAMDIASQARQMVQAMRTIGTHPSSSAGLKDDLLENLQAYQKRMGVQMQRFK
UniProt P03454, residues 18-565: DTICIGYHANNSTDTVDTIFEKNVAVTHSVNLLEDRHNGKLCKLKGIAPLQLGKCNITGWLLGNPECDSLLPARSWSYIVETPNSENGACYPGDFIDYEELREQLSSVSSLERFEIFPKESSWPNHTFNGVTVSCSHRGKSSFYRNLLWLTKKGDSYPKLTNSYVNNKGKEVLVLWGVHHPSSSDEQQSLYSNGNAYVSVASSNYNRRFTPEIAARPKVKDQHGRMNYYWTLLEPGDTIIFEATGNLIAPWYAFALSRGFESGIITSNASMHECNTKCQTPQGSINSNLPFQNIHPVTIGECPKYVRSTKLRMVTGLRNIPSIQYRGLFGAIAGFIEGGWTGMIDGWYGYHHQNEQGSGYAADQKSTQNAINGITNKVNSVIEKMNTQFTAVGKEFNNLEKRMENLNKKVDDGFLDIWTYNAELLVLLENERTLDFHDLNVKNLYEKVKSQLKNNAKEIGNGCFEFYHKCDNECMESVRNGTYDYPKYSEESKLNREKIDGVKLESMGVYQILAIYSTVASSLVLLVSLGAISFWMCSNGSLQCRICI
UniProt P03470: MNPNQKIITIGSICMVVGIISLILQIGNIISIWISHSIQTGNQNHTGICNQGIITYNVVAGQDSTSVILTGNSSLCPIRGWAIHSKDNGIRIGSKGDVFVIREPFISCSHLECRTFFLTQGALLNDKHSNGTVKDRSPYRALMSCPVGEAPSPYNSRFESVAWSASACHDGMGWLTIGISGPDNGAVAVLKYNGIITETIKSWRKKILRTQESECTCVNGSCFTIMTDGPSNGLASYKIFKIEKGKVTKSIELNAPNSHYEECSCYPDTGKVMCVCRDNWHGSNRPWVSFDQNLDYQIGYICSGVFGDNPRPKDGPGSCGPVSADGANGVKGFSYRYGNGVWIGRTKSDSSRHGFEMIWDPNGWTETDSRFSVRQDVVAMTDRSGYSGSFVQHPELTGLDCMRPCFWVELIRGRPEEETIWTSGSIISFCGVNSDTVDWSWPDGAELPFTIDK
UniProt P15682: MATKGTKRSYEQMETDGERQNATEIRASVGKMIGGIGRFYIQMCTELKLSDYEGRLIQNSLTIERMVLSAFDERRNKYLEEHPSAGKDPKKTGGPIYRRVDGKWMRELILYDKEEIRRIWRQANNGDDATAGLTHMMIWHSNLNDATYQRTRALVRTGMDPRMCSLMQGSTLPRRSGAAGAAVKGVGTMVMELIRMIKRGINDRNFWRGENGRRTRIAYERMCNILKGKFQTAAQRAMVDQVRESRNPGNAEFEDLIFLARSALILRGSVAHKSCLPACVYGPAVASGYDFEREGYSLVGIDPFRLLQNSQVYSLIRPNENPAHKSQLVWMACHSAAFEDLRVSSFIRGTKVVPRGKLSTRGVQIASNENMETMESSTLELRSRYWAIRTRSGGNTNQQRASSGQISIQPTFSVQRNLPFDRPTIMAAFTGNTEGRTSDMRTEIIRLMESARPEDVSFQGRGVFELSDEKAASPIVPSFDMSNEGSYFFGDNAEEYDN

No constants are given. Whether binding was seen depends on the method and setting. In cells and extracts the contact can be indirect. Some results given as binding are weak or reduced against the parent protein; the word gives no strength. For part of these data: Tags and fused reporters may be left off the sequences shown.

Holding throughout (test): co-IP
Assay [1] concerns the target HSC70-Myc (heat shock cognate protein 70, Myc-tagged) (UniProt P11142).
In assay [2] the target is T1, TRIM45-V5 (tripartite motif containing 45, V5-tagged) (human) (UniProt Q9H8W5).
T1 sequence: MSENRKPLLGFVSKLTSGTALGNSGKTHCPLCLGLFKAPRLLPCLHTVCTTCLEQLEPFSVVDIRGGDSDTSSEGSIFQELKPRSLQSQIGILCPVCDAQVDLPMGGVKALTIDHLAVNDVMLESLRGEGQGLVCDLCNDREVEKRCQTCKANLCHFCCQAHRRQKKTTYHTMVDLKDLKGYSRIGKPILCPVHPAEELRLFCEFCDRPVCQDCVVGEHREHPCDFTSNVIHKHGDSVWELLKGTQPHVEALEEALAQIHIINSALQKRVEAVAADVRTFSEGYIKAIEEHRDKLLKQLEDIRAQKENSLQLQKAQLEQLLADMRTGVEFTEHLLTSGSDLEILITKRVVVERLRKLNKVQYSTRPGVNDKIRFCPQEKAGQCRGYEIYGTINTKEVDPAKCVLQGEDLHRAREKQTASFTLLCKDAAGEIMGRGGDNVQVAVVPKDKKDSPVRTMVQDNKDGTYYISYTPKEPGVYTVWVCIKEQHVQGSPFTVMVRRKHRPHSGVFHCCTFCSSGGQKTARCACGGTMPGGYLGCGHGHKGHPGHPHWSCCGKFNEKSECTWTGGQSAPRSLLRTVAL

Assay [3] addresses LAMP-2A-Myc (lysosomal-associated membrane protein type 2A, Myc-tagged) (UniProt P13473).
The target in assay [4] is T2, endogenous TRIM45 (human (endogenous in A549)) (UniProt Q9H8W5).
T2 sequence: T1 sequence

Assay [5] deals with PB2 (polymerase basic protein 2) of A/WSN/1933 (WSN, H1N1), expressed from pCAGGS (influenza A virus A/WSN/1933 (H1N1)) (UniProt P03427).

As to “PB2 of WSN (H1N1) virus, made in infected cells (from UniProt P03427 1-759)”, the binding entry in assay [1], in assay [2], in assay [3] and in assay [4] was “binds” in each case.
For the substance “PB2 (polymerase basic protein 2) of A/WSN/1933 (WSN, H1N1), expressed from pCAGGS (from UniProt P03427 1-759)”, the binding result in assay [1], in assay [2] and in assay [3] was “binds” each time.
On to “PB1-Flag of WSN (H1N1) virus (from UniProt P03430 1-757)”, for which the binding result in assay [2] is “no binding”.
As to “coiled-coil (CC) domain of TRIM45 with a C-terminal GST tag (from UniProt Q9H8W5 281-335) (domain or fragment)”, the binding result in assay [5] is given as “binds”.
In the case of “M1-GST of WSN (H1N1) virus (from UniProt P05777 1-252)”, the binding result in assay [2] is “no binding”.
For the substance “HA-Myc of WSN (H1N1) virus (from UniProt P03454)”, the binding entry in assay [2] was “no binding”.
Same read-out and setting: the same measure for “NA-Myc of WSN (H1N1) virus (from UniProt P03470 1-453)”: “no binding”.
With “V5-tagged wild-type PB2 of WSN (H1N1) (from UniProt P03427 1-759)”, the binding result in assay [1] and in assay [3] was “binds” each time.
As for “NP of WSN (H1N1) virus (from UniProt P15682 1-498)”, in assay [2], the binding entry is “no binding”.
